Test results published in the supplement of paper PMC4967469.
pIC50: −log10 of the molar value. The IC50 comes from the fitted curve, where viability falls to half of the control; a fit beyond the top or the lowest dose is shown as a bound at that dose. AUC is the area under the same curve over the 256-fold range up to the top dose, as a fraction; the more sensitive the line, the further below 1. A top dose marked as inferred was calculated from the reported fits. For part of these data: An entry number marks a drug with two screens in the source, which often give different values.

Legend:
Experiment in all cases: Viability of human cancer cell lines after 72 h of drug (GDSC screen)
[1] = compound: Cc1cnc(-c2cnc(NCCNc3ccc(C#N)cn3)nc2-c2ccc(Cl)cc2Cl)[nH]1 [CHIR-99021]
Protocol: (§1)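 Human cancer cell lines in 384-well plates, medium with 10% serum, drug for 72 h over a 256-fold dose range (nine 2-fold or five 4-fold steps up to the top dose). Adherent lines were fixed and stained with the nucleic acid dye Syto60, suspension lines read with resazurin; signal relative to control wells, capped at 0 and 100%. One two-parameter sigmoid per drug and line, fitted in a mixed model over all curves with the slope shared within a line.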

[2] = compound: C=CC(=O)Nc1cc(-n2c(=O)ccc3cnc4ccc(-c5cn[nH]c5)cc4c32)ccc1C [QL-X-138]; conditions: top dose 10.24 µM; top dose inferred
Protocol: as §1

[3] = compound: COc1nc(C)cnc1NS(=O)(=O)c1cccnc1-c1ccc(-c2nnco2)cc1 [Zibotentan]; conditions: top dose 20 µM; top dose inferred
Protocol: as §1

[4] = compound: COc1cc(O)c2c(c1)/C=C/C[C@H](O)[C@H](O)C(=O)/C=C\C[C@H](C)OC2=O [(5Z)-7-Oxozeaenol]; conditions: top dose 10 µM; top dose inferred
Protocol: as §1

[5] = compound: C/C=C(/C)C(=O)O[C@H]1C(C)=C2[C@H]([C@@H]1OC(=O)CCCCCCC)[C@@](C)(OC(C)=O)C[C@H](OC(=O)CCC)[C@@]1(O)[C@H]2OC(=O)[C@@]1(C)O [Thapsigargin]; conditions: top dose 0.512 µM; top dose inferred
Protocol: as §1

[6] = compound: COc1cc(N2CCC(O)CC2)ccc1Nc1cc(Nc2ccccc2S(=O)(=O)C(C)C)c2cc[nH]c2n1 [MPS-1-IN-1]; conditions: top dose 20 µM; top dose inferred
Protocol: as §1

[7] = compound: COc1cc2ncnc(-n3nc(-c4ccccn4)nc3N)c2cc1OC [CP466722]; conditions: top dose 16 µM; top dose inferred
Protocol: as §1

[8] = compound: Cc1ccc(F)c(NC(=O)Nc2ccc(-c3cccc4[nH]nc(N)c34)cc2)c1 [ABT-869]; conditions: top dose 1.024 µM; top dose inferred
Protocol: as §1

[9] = compound: CCn1c(-c2nonc2N)nc2cnc(Oc3cccc(NC(=O)c4ccc(OCCN5CCOCC5)cc4)c3)cc21 [GSK269962A]; conditions: top dose inferred
Protocol: as §1

[10] = top dose 2.56 µM, screen: GDSC drug entry 154
[11] = top dose 10 µM, screen: GDSC drug entry 1241, top dose inferred
[12] = top dose 5 µM, screen: GDSC drug entry 1192
[13] = top dose 2.5 µM, screen: GDSC drug entry 127

Cell Line | AUC [1, 10] | pIC50 [1, 10] | AUC [1, 11] | pIC50 [1, 11] | AUC [2] | pIC50 [2] | AUC [3] | pIC50 [3] | AUC [4] | pIC50 [4] | AUC [5] | pIC50 [5] | AUC [6] | pIC50 [6] | AUC [7] | pIC50 [7] | AUC [8] | pIC50 [8] | AUC [9, 12] | pIC50 [9, 12] | AUC [9, 13] | pIC50 [9, 13]
NCI-H196 (small cell lung carcinoma, adherent) | 0.988 | < 5.59 | 0.987 | < 5.00 | 0.904 | < 4.99 | 0.988 | < 4.70 | 0.943 | < 5.00 | 0.846 | 6.40 | 0.9 | < 4.70 | 0.82 | 5.01 | 0.988 | < 5.99 | 0.961 | < 5.30 | – | –
NCI-H1299 (large cell lung carcinoma, adherent) | 0.976 | < 5.59 | 0.972 | < 5.00 | 0.768 | 5.33 | 0.974 | < 4.70 | 0.693 | 5.61 | 0.191 | 8.53 | 0.922 | < 4.70 | 0.818 | 4.93 | 0.982 | < 5.99 | 0.962 | < 5.30 | 0.979 | < 5.60
NCI-H1573 (lung adenocarcinoma, adherent) | 0.991 | < 5.59 | 0.98 | < 5.00 | 0.968 | < 4.99 | 0.99 | < 4.70 | 0.848 | 5.15 | 0.899 | < 6.29 | 0.987 | < 4.70 | 0.883 | < 4.80 | 0.991 | < 5.99 | 0.973 | < 5.30 | – | –
NCI-H1793 (lung adenocarcinoma, adherent) | 0.979 | < 5.59 | 0.98 | < 5.00 | 0.809 | 5.08 | 0.982 | < 4.70 | 0.979 | < 5.00 | 0.804 | 6.40 | 0.981 | < 4.70 | 0.806 | 4.90 | 0.982 | < 5.99 | 0.901 | < 5.30 | – | –
NCI-H1915 (large cell lung carcinoma, adherent) | 0.949 | < 5.59 | 0.941 | < 5.00 | 0.824 | 5.21 | 0.986 | < 4.70 | 0.744 | 5.50 | 0.18 | 8.47 | 0.931 | < 4.70 | 0.843 | 4.94 | 0.981 | < 5.99 | 0.961 | < 5.30 | – | –
PCI-38 (head and neck, adherent) | 0.966 | < 5.59 | 0.871 | 5.02 | 0.903 | < 4.99 | 0.974 | < 4.70 | 0.795 | 5.33 | 0.815 | 6.55 | 0.895 | < 4.70 | 0.946 | < 4.80 | 0.984 | < 5.99 | 0.825 | 5.52 | – | –
PL18 (pancreas, adherent) | 0.987 | < 5.59 | 0.974 | < 5.00 | 0.904 | < 4.99 | 0.986 | < 4.70 | 0.779 | 5.39 | 0.443 | 7.65 | 0.976 | < 4.70 | 0.953 | < 4.80 | 0.978 | < 5.99 | 0.987 | < 5.30 | – | –
RD (rhabdomyosarcoma, adherent) | 0.982 | < 5.59 | 0.894 | < 5.00 | 0.53 | 6.11 | 0.978 | < 4.70 | 0.42 | 6.43 | 0.285 | – | 0.828 | 4.86 | 0.843 | 4.89 | 0.985 | < 5.99 | 0.957 | < 5.30 | – | –
RT-112 (bladder, adherent) | 0.915 | < 5.59 | 0.983 | < 5.00 | 0.694 | 5.63 | 0.985 | < 4.70 | 0.558 | 6.04 | 0.223 | 8.34 | 0.856 | 4.74 | 0.918 | < 4.80 | 0.959 | < 5.99 | 0.895 | < 5.30 | – | –
SN12C (kidney, adherent) | 0.982 | < 5.59 | 0.965 | < 5.00 | 0.897 | < 4.99 | 0.983 | < 4.70 | 0.641 | 5.79 | 0.417 | 7.74 | 0.986 | < 4.70 | 0.935 | < 4.80 | 0.986 | < 5.99 | 0.936 | < 5.30 | – | –
SNU-398 (liver, adherent) | 0.937 | < 5.59 | 0.984 | < 5.00 | 0.433 | 6.38 | 0.978 | < 4.70 | 0.684 | 5.68 | 0.039 | > 8.70 | 0.871 | < 4.70 | 0.759 | 5.24 | 0.985 | < 5.99 | 0.805 | 5.58 | – | –
SW156 (kidney, adherent) | 0.983 | < 5.59 | 0.984 | < 5.00 | 0.902 | < 4.99 | 0.984 | < 4.70 | 0.767 | 5.39 | 0.777 | 6.64 | 0.965 | < 4.70 | 0.821 | 4.97 | 0.976 | < 5.99 | 0.808 | 5.53 | – | –
SW837 (large intestine, adherent) | 0.969 | < 5.59 | 0.955 | < 5.00 | 0.847 | < 4.99 | 0.983 | < 4.70 | 0.745 | 5.39 | 0.252 | 8.32 | 0.852 | < 4.70 | 0.774 | 5.07 | 0.981 | < 5.99 | 0.978 | < 5.30 | – | –
